Experimental data reported in patent US12116397B2, “IL-IR-I binding polypeptide” (Swedish Orphan Biovitrum AB (publ), priority 2017, dated 2024).
Like-named read-outs stand apart in the source and are kept apart here.

Experiments:
TF-1 cells = assay: In vitro IL-1β neutralization assay (TF-1 cell assay); assay type: cell-based; conditions: His6-Z polypeptides
Protocol: The TF-1 cell line proliferates in response to many different cytokines including IL-1β. This cell line was used to assess the ability of primary IL-1R1 binders to inhibit IL-1β actions. TF-1 cells were maintained in RPM11640 with L-glutamine (Lonza) supplemented with 10% FCS (Gibco), Penicillin-Streptomycin (Lonza) and 2 ng/ml rhGM-CSF (R&D Systems). Prior to use, cells were washed twice in RPM11640 without rhGM-CSF. Cells were then counted and dispensed into 96 well flat bottomed plates at a density of 3×10^4 cells per well. In separate plates, serial dilutions of the inhibitory binders; His6-tagged IL-1R-I binding Z variants, with a concentration range of 400-0.1 nM, or the IL-1R-I binding protein Kineret (anakinra, Sobi), with a concentration range of 0.3-0.0003 nM, were incubated in the presence of 0.6 nM IL-1β (PeproTech). The pre-mixed complexes of the Z variant polypeptides and IL-13 were transferred to wells containing TF-1 cells. The cells were stimulated for 72 h at 37° C. in a humidified 5% CO2 atmosphere. During the last four hours of incubation, 19 μl of 2× diluted CCK-8 (Fluka, Sigma Aldrich), was added per well to determine the proliferative responses. The absorbance was measured at 450 nm using a microplate reader (Victor3, Perkin Elmer). The data on cell growth was assessed by non-linear regression to a four-parameter dose-response curve, and the half maximal inhibitory concentration (IC50) was determined using GraphPadPrism program.
(§1) His6-tagged IL-1R-I specific Z variants were tested for their inhibitory capacity in the TF-1 cell assay. The assay was run as described in Example 2. The data on cell growth was assessed by non-linear regression to a four-parameter dose-response curve, and IC50 values were determined using GraphPadPrism program. His6-tagged Z12967 was included for comparison.
as §1, with “Z12967, Z16065, Z16163 and Z18557 were” for “Z12967 was”

[1] = Circular dichroism (CD) spectroscopy analysis, melting temperature and refolding; assay type: physicochemical; conditions: for Melting temperatures (Tm): His6-tagged Z variants, CD variable temperature measurement
Protocol: Purified His6-tagged Z variants were diluted to 0.5 mg/ml in PBS. For each diluted Z variant, a CD spectrum at 250-195 nm was obtained at 20° C. In addition, a variable temperature measurement (VTM) was performed to determine the melting temperature (Tm). In the VTM, the absorbance was measured at 221 nm while the temperature was raised from 20 to 90° C., with a temperature slope of 5° C./min. A new CD spectrum was obtained at 20° C. after the heating procedure in order to study the refolding ability of the Z variants. The CD measurements were performed on a Jasco J-810 spectropolarimeter (Jasco Scandinavia AB) using a cell with an optical path length of 1 mm.
CD was analyzed for His6-tagged Z variants, as described in Example 2.

hIL-1R-I = molecular target: T1, hIL-1R-I (Homo sapiens, UniProt P14778); assay: Biacore affinity/kinetic analysis of His6-tagged Z variants, human IL-1R-I; assay type: binding
T1 construct: purchased R&D Systems 269-1R/CF
T1 sequence (P14778 18-569): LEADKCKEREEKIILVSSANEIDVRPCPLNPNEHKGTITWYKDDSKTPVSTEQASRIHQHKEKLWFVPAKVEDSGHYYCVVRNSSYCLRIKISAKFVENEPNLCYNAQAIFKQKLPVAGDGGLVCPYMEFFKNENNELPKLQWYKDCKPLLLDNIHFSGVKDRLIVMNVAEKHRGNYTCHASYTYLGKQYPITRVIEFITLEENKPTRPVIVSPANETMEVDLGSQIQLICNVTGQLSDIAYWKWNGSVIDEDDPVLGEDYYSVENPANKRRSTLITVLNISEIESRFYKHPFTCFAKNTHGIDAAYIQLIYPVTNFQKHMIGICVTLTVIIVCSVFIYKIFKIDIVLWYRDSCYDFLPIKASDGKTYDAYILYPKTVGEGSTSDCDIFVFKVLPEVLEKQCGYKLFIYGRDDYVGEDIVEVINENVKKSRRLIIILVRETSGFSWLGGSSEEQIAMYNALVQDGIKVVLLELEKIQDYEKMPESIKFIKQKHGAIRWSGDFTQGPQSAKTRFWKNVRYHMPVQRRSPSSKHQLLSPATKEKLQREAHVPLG
Protocol: Affinities (KD) for human and cynomolgus IL-1R-I were determined for His6-tagged Z variants using a Biacore 2000 instrument (GE Healthcare). hIL-1R-I or cIL-1R-I-His6 was immobilized on the carboxylated dextran layer in different flow cells of a CM5 chip (GE Healthcare, cat. no. BR100012). The immobilization was performed using amine coupling chemistry according to the manufacturer's protocol. Acetate pH 4.5 (GE Healthcare, cat. no. BR100350) was used for ligand dilution and HBS-EP (GE Healthcare, cat. no. BR100188) was used as running buffer. One flow cell surface on the chip was activated and deactivated for use as blank during analyte injections. In the kinetic experiment, HBS-EP was used as running buffer, the flow rate was 50 μl/min and the temperature was 25° C. The analytes, i.e. the Z variants, were each diluted in HBS-EP buffer to final concentrations of 40 nM and 10 nM, and were injected over the target chip surfaces for 2 min, followed by dissociation in running buffer for 8 min. Kinetic constants were calculated from the obtained sensorgrams using a 1:1 binding model, in the BiaEvaluation software 4.1 (GE Healthcare).
The kinetic constants (kon and koff) and affinities (KD) for human and cynomolgus IL-1R-I were determined for His6-tagged Z variants using a Biacore 2000 instrument (GE Healthcare). The experiment was run essentially as described in Example 2, using 100, 10 and 1 nM of the Z variants. The analyte injection time was 3 min followed by 15 min dissociation and 2×5 s glycine pH 3.0 (GE Healthcare, cat. no. BR100357), supplemented with 0.5 M NaCl, was used for regeneration of the surfaces between the cycles. Kinetic constants were calculated from the obtained sensorgrams of two or three concentrations of the respective Z variant, using a 1:1 binding model in the BiaEvaluation software 4.1 (GE Healthcare). His6-tagged Z12967 was included in the assay for comparison.
The kinetic constants (kon and koff) and affinities (KD) for human and cynomolgus IL-1R-I were determined for His6-tagged Z variants using a Biacore 2000 instrument (GE Healthcare). The experiment was run essentially as described in Example 5, using 48, 12, 3 and 0.75 nM of the Z variants. The analyte injection time was 3 min followed by 6 min dissociation and 2×5 s glycine pH 3.0, supplemented with 0.5 M NaCl, was used for regeneration of the surfaces between the cycles. Kinetic constants were calculated from the obtained sensorgrams of three or four concentrations of the respective Z variant, using a 1:1 binding model in the BiaEvaluation software 4.1 (GE Healthcare). His6-tagged Z12967 (SEQ ID NO:9), Z16065 (SEQ ID NO:268), Z16163 (SEQ ID NO:359) and Z18557 (SEQ ID NO:1205) were included in the assay for comparison.

[2] = IL-1β inhibition in TF-1 cell assay, Table 12 (first matured library)
[3] = His6-Z polypeptides, 100, 10 and 1 nM (Example 5)
[4] = His6-Z polypeptides, 100, 10 and 1 nM (Example 5), read-out: KD
[5] = His6-Z polypeptides binding to human IL-1R-I, Biacore, Table 19

| Substance | IC50 (TF-1 cells; [2]) [nM] | koff (hIL-1R-I; [3]) [s⁻¹] | kon (hIL-1R-I; [3]) [M⁻¹ s⁻¹] | Kd (hIL-1R-I; [4]) [nM] | Melting temperatures (Tm) ([1]; Table 13) [°C] | further results |
| --- | --- | --- | --- | --- | --- | --- |
| Z18846: IL-1R-I binding Z variant (VDAKYAKEIEEIQMEIFHLPNLTRRQYTAFIRKLLDDPSQSSELLSEAKKLNDSQAPK; Engineered IL-1R-I binding polypeptide) | – | – | – | – | – | IC50 (TF-1 cells; IL-1β inhibition in TF-1 cell assay, Table 20 (Example 9)): 0.2 nM; Melting temperatures (Tm) ([1]; Table 21): 60 °C; koff (hIL-1R-I; [5]): 0.0051 s⁻¹; kon (hIL-1R-I; [5]): 4.7e+07 M⁻¹ s⁻¹; Kd (hIL-1R-I; His6-Z polypeptides binding to human IL-1R-I, Biacore, Table 19, read-out: KD): 0.11 nM |
| Z17292: IL-1R-I binding Z variant (VDAKYAKEVEYAYFEIYSLPNLTRKQYTAFIRKLLDDPSQSSELLSEAKKLNDSQAPK; Engineered IL-1R-I binding polypeptide) | 13.2 | 0.005 | 1.3e+07 | 0.38 | – | – |
| Z12911: IL-1R-I binding Z variant (VDAKYAKEHEKAILEIFHLPNLTRRQYTAFIRKLLDDPSQSSELLSEAKKLNDSQAPK; Engineered IL-1R-I binding polypeptide) | – | – | – | – | – | IC50 (TF-1 cells; 0.6 nM IL-1β, 72 h (Example 2)): 30 nM; Tm (° C.) ([1]; His6-tagged Z variants 0.5 mg/ml in PBS, 221 nm, 20 to 90° C. (Example 2)): 64 °C; Kd (hIL-1R-I; His6-Z polypeptides, Biacore 2000, 25° C., 40 nM and 10 nM (Example 2), read-out: Human IL-1R-I KD): 7.1 nM |
| Z16363: IL-1R-I binding Z variant (VDAKYAKEVEQAQMEIFRLPNLTRKQYTAFIRKLLDDPSQSSELLSEAKKLNDSQAPK; Engineered IL-1R-I binding polypeptide) | 8.1 | 0.0018 | 3.2e+06 | 0.57 | – | – |
| Z16007: IL-1R-I binding Z variant (VDAKYAKEVEIAQMEIFSLPNLTRKQYTAFIRKLFDDPSQSSELLSEAKKLNDSQAPK; Engineered IL-1R-I binding polypeptide) | 5.9 | 0.0021 | 2.3e+06 | 0.92 | – | – |
| Z15862: IL-1R-I binding Z variant (VDAKYAKEVEIAQMEIFALPNLTRKQYTAFIRKLLDDPSQSSELLSEAKKLNDSQAPK; Engineered IL-1R-I binding polypeptide) | 6.6 | 0.0019 | 2.8e+06 | 0.67 | – | – |
| Z16255: IL-1R-I binding Z variant (VDAKYAKETEDAYMEIYALPNLTRKQYTAFIRKLLDDPSQSSELLSEAKKLNDSQAPK; Engineered IL-1R-I binding polypeptide) | 8.5 | 0.0031 | 3e+06 | 1 | – | – |

Now from value to substance, other results behind:

| IC50 (TF-1 cells; [2]) [nM] | koff (hIL-1R-I; [3]) [s⁻¹] | kon (hIL-1R-I; [3]) [M⁻¹ s⁻¹] | Kd (hIL-1R-I; [4]) [nM] | Substance | Melting temperatures (Tm) ([1]; Table 13) [°C] | further results |
| --- | --- | --- | --- | --- | --- | --- |
| 3.3 | 0.0014 | 5.6e+06 | 0.25 | Z16093: IL-1R-I binding Z variant (VDAKYAKETEEAQMEIFALPNLTRKQYTAFIRKLFDDPSQSSELLSEAKKLNDSQAPK; Engineered IL-1R-I binding polypeptide) | 52 | – |
| 3.4 | 0.0015 | 3.1e+06 | 0.48 | Z16097: IL-1R-I binding Z variant (VDAKYAKETERAQMEIFSLPNLTRKQYTAFIRKLLDDPSQSSELLSEAKKLNDSQAPK; Engineered IL-1R-I binding polypeptide) | 56 | – |
| 3.9 | 0.0016 | 3e+06 | 0.52 | Z16341: IL-1R-I binding Z variant (VDAKYAKELEAAQMEIFALPNLTRRQYTAFIRKLLDDPSQSSELLSEAKKLNDSQAPK; Engineered IL-1R-I binding polypeptide) | 59 | – |
| 3.7 | 0.0015 | 6e+06 | 0.24 | Z15953: IL-1R-I binding Z variant (VDAKYAKETEKAQMEIFALPNLTRKQYTAFIRKLLDDPSQSSELLSEAKKLNDSQAPK; Engineered IL-1R-I binding polypeptide) | 56 | – |
| 4.6 | 0.0024 | 1.1e+07 | 0.22 | Z17274: IL-1R-I binding Z variant (VDAKYAKEIEVAYMEIYHLPNLTRKQYTAFIRKLLDDPSQSSELLSEAKKLNDSQAPK; Engineered IL-1R-I binding polypeptide) | – | – |
| 4.5 | 0.0021 | 3.1e+06 | 0.66 | Z16301: IL-1R-I binding Z variant (VDAKYAKEIEAAQMEIFELPNLTRKQYTAFIRKLLDDPSQSSELLSEAKKLNDSQAPK; Engineered IL-1R-I binding polypeptide) | – | – |
